{"source": "ChEMBL document CHEMBL4888484", "about": "“Replenishing the malaria drug discovery pipeline: Screening and hit evaluation of the MMV Hit Generation Library 1 (HGL1) against asexual blood stage Plasmodium falciparum ,using a nano luciferase reporter read-out” (2022)", "note": "Out of some 150,000 compounds screened, about 540 (0.36%) showed an effect of 50% or more. The list shows a part of the results.", "data": [{"system": "Plasmodium falciparum", "test": "Primary screen in NF54 nanoGlo assay, in single point, at 2uM, 72h; a lower Z score goes with more inhibition", "type": "functional, Erythrocyte", "conditions": "timepoint 72 hour", "units": {"% Inhibition": "%"}, "values": [{"smiles": "c1ccc(Oc2ccc(-c3ccc4ccccc4n3)cc2)cc1", "% Inhibition": -2, "Z score": 0.32}, {"smiles": "CC(NC(N)=O)C(=O)NCCC(C)c1ccccc1", "note": "(stereo not drawn)", "% Inhibition": -10, "Z score": 1.33}, {"smiles": "C[C@H]1CCN(C(=O)c2cncc(Br)c2)c2ccccc2N1", "% Inhibition": -1, "Z score": 0.1}, {"smiles": "CC(C)Cn1c(CC2(CC(=O)N3CCN(C)C(=O)C3)CCCC2)nc2cccnc21", "% Inhibition": -2, "Z score": 0.44}, {"smiles": "CC(C)C(C)NC(=NCc1ccccc1)NCC1CCOC1", "note": "(stereo not drawn)", "% Inhibition": -8, "Z score": 1}, {"smiles": "Cc1nc(C)c(C(=O)N(CC(=O)N2CCCCCC2)C(C)C)o1", "% Inhibition": 3, "Z score": -0.43}, {"smiles": "O=C(NC1CCN(Cc2cccs2)CC1)c1cc(=O)n(-c2ccccc2)[nH]1", "% Inhibition": 4, "Z score": -0.72}, {"smiles": "Cc1cc(CNC(=O)c2ccc3c(c2)OCO3)nn1C", "% Inhibition": -7, "Z score": 1.02}, {"smiles": "CCCn1c(C)cnc1CCNC(=O)CC", "% Inhibition": 0, "Z score": -0.02}, {"smiles": "Cc1cc(COc2ccccc2)oc1C(=O)N(C)Cc1snnc1C", "% Inhibition": 7, "Z score": -1.03}, {"smiles": "Cc1nc2ccc(N(C)S(=O)(=O)c3cc(C(=O)O)cs3)cc2s1", "% Inhibition": 33, "Z score": -1.2}, {"smiles": "Cc1noc([C@H](C)N(C)Cc2ccc(OCCn3ccnc3)cc2)n1", "% Inhibition": -16, "Z score": 1.7}, {"smiles": "C[C@H]1CN(C(=O)c2csc(CN)n2)c2ccccc21", "% Inhibition": -8, "Z score": 0.91}, {"smiles": "Nc1nccnc1C(=O)N1CCCCCC1CC(O)c1ccccc1", "note": "(stereo not drawn)", "% Inhibition": -11, "Z score": 1.49}, {"smiles": "CC(C)N(Cc1cc(NC(=O)c2cccs2)ccc1N(C)C)C(=O)c1cccc(F)c1", "% Inhibition": -8, "Z score": 1.58}, {"smiles": "O=C(Nc1ccc2c(c1)OCO2)c1c[nH]nc1C1CC1", "% Inhibition": -10, "Z score": 1.87}, {"smiles": "O=C(NCCc1nnc2n1CCCC2)c1ccc(Cl)c2occc12", "% Inhibition": -10, "Z score": 1.96}, {"smiles": "COc1ccc(CN(C)[C@H]2CS(=O)(=O)C[C@@H]2O)cc1Cn1cccn1", "% Inhibition": -6, "Z score": 1.24}, {"smiles": "CCOC(=O)N1CC[C@H](NCc2nc(COC)no2)C1", "% Inhibition": 1, "Z score": -0.22}, {"smiles": "N#Cc1cccc(CN2CCCO[C@@H](CN3CCCC3)C2)c1", "% Inhibition": 0, "Z score": 0.02}, {"smiles": "CCOC(=O)C1CCN(C(=O)CN2C(=O)C(C)(C)c3cc(C)ccc32)CC1", "% Inhibition": -15, "Z score": 2.5}, {"smiles": "CN(Cc1cnc(N2CCCC2)s1)C1Cc2ccccc2C1", "% Inhibition": 0, "Z score": 0.04}, {"smiles": "CCCCc1nnc(NS(=O)(=O)c2ccc(OC)c(Cl)c2)o1", "% Inhibition": -17, "Z score": 2.06}, {"smiles": "CN(CCC(=O)Nc1ccc2c(c1)CCC2)Cc1cnccn1", "% Inhibition": -9, "Z score": 1.54}, {"smiles": "Cc1cc(N2C[C@H]3CCN(Cc4cc5ccccc5o4)[C@H]3C2)ccn1", "% Inhibition": -8, "Z score": 1.42}, {"smiles": "COc1ccc(-c2cc(O)nc(C)n2)c(OC)n1", "% Inhibition": 8, "Z score": -1.53}, {"smiles": "Cc1ccc(Cl)cc1N1CCN(C(=O)c2c(C)noc2C(C)C)CC1", "% Inhibition": -15, "Z score": 2.1}, {"smiles": "COc1ccc2cc(-c3nc(CCN(C)C(=O)c4ccc(N(C)C)cc4)no3)[nH]c2c1", "% Inhibition": -2, "Z score": 0.46}, {"smiles": "CCOC(=O)Cc1csc(NC(=O)c2c[nH]c3c(F)cccc3c2=O)n1", "% Inhibition": -4, "Z score": 0.47}, {"smiles": "NC(=O)C(NC(=O)NCCCC1CCCC1)C(N)=O", "% Inhibition": -7, "Z score": 1.27}, {"smiles": "O=C(COC(=O)CCS(=O)(=O)c1ccccc1)NC(=O)[C@@H]1COc2ccccc2O1", "% Inhibition": -8, "Z score": 1.34}, {"smiles": "CCCS(=O)(=O)N1CCOc2ccc(CN3CCCCC3)cc2C1", "% Inhibition": -10, "Z score": 1.04}, {"smiles": "COc1cccc(-c2cc(C(=O)NCc3ccccc3)n3nc(C(C)(C)C)cc3n2)c1", "% Inhibition": -6, "Z score": 0.94}, {"smiles": "O=C(Nc1ccc2c(c1)OCO2)N1C2CCC1CN(Cc1ccccc1)C2", "% Inhibition": -13, "Z score": 2.49}, {"smiles": "Cc1nnc2ccc(N3CCC(Cn4nc5c(cc4=O)CCC5)CC3)nn12", "% Inhibition": -4, "Z score": 0.63}, {"smiles": "NC(=O)Cn1ccnc1C1CCN(C(=O)c2cc3ccccc3cn2)CC1", "% Inhibition": -5, "Z score": 0.84}, {"smiles": "Cc1coc(-c2cccc(NC(=O)NC[C@H]3CCCS3(=O)=O)c2)n1", "% Inhibition": -13, "Z score": 1.69}, {"smiles": "CCCc1cc(C(=O)N[C@H]2Cc3ccccc3[C@@H]2N)no1", "% Inhibition": -13, "Z score": 1.8}, {"smiles": "Cc1nc(CCNc2ccc(C(=O)N3CCC(C)CC3)cn2)sc1C", "% Inhibition": -13, "Z score": 2.17}, {"smiles": "O=C(c1cc(-c2ccccc2)nc2ccccc12)N1CCN(S(=O)(=O)c2ccccc2)CC1", "% Inhibition": -10, "Z score": 1.84}, {"smiles": "NC(=O)c1ccc(CNC(=O)c2cccc(-n3cccn3)n2)o1", "% Inhibition": -7, "Z score": 0.77}, {"smiles": "N#Cc1cccc(NC(=O)C(=O)Nc2ccn(CCN3CCOCC3)n2)c1", "% Inhibition": -9, "Z score": 1.19}, {"smiles": "COc1ccc(CNCc2cc3ccccc3nc2N2CCCCC2)cn1", "% Inhibition": 8, "Z score": -1.22}, {"smiles": "O=C(C[C@H]1CCc2ccccc2C1)NCCNc1ncccn1", "% Inhibition": -7, "Z score": 1.38}, {"smiles": "CO[C@@H](CNC(=O)C(C)(C)C)c1ccc(C)s1", "% Inhibition": -5, "Z score": 0.78}, {"smiles": "CC(C)C(NC(=O)[C@H](O)c1ccccc1)C(=O)N(C)C", "note": "(stereo partly drawn)", "% Inhibition": 2, "Z score": -0.29}, {"smiles": "O=C(c1cccc(S(=O)(=O)N2CC[C@@H](O)C2)c1)N1CCCCCCC1", "% Inhibition": -11, "Z score": 1.46}, {"smiles": "Cc1nnc(CN(C)C(=O)c2ccc3nc(C4CCCCC4)oc3c2)o1", "% Inhibition": -7, "Z score": 1.22}, {"smiles": "Cc1cnc(C2CN(Cc3ccccn3)C2)n1CC1CC1", "% Inhibition": -7, "Z score": 1.18}, {"smiles": "Cc1nn(-c2ccccc2)c2nc(C3CCOCC3)nc(N3CCN(C(=O)c4cccs4)CC3)c12", "% Inhibition": -7, "Z score": 1.09}, {"smiles": "Cc1nnccc1C(=O)N1CCNC(=O)CC12CCC2", "% Inhibition": -7, "Z score": 0.95}, {"smiles": "CCn1nccc1CN(CCO)C(=O)[C@H]1CCCCC1(F)F", "% Inhibition": 2, "Z score": -0.29}, {"smiles": "Cc1ccc(Cl)cc1NC(=O)CC(=O)N1CCC2(CCC(=O)N(C)CC2)CC1", "% Inhibition": 4, "Z score": -0.41}, {"smiles": "O=C1NC(c2ccc(OC(F)F)c(Cl)c2)N2CCOCC12", "note": "(stereo not drawn)", "% Inhibition": 3, "Z score": -0.37}, {"smiles": "CCc1nc(NCc2nnc(C(C)C)n2C)c2ccsc2n1", "% Inhibition": -10, "Z score": 1.82}, {"smiles": "C[C@@H](CNc1nc(-c2ccccc2)nc2nc(-c3ccc(Cl)cc3)oc12)N1CCOCC1", "% Inhibition": -17, "Z score": 2.25}, {"smiles": "Cc1c[nH]c(CN(C)C(=O)c2ccc(C#N)nc2)n1", "% Inhibition": -6, "Z score": 0.8}, {"smiles": "CC(C)c1ccc(N2C(=O)[C@H](CC(=O)NCCNc3ncccn3)N=C2O)cc1", "% Inhibition": 5, "Z score": -0.6}, {"smiles": "Cc1nc2c(c(=O)[nH]1)CN(C(=O)CCS(=O)(=O)c1ccccc1)C2", "% Inhibition": 0, "Z score": 0.09}, {"smiles": "C[C@H]1CCCCN1CCNC(=O)c1cnc2ccc(F)cc2c1", "% Inhibition": -7, "Z score": 0.69}, {"smiles": "Cc1cccc(-c2ocnc2C(=O)N2CCC[C@H](c3nc(C)ncc3CO)C2)c1", "% Inhibition": -4, "Z score": 0.51}, {"smiles": "O=C1CCC2(CCN(Cc3cccs3)CC2)N1Cc1ccc(F)cc1", "% Inhibition": 11, "Z score": -1.41}, {"smiles": "CS(=O)(=O)NCCN1Cc2ccccc2C1", "% Inhibition": -4, "Z score": 0.54}, {"smiles": "O=C(c1ccccc1)N1CCN(S(=O)(=O)c2cc(Cl)sc2Cl)CC1", "% Inhibition": -4, "Z score": 0.69}, {"smiles": "Nc1c2c(-c3ccccc3Cl)nc(NCCN3CCCCC3)nc2nn1-c1ccc(F)cc1", "% Inhibition": -6, "Z score": 0.59}, {"smiles": "Cn1cc(C(=O)Nc2ccccc2NCCc2ccccn2)cn1", "% Inhibition": -7, "Z score": 0.75}, {"smiles": "O=C(c1ccc2nsnc2c1)N1CCN(c2cc3c(nn2)CCCC3)CC1", "% Inhibition": -4, "Z score": 0.61}, {"smiles": "CN(C(=O)[C@@H]1CCCc2ccccc21)c1nccs1", "% Inhibition": -10, "Z score": 1.6}, {"smiles": "C[C@@H]1CN(C(=O)c2n[nH]c3ccc(Cl)cc23)CCN(C2CC2)C1", "% Inhibition": 5, "Z score": -0.8}, {"smiles": "COCCN1CCN2C(=O)[C@H](C)N(S(=O)(=O)c3ccccc3F)C[C@H]2C1=O", "% Inhibition": 6, "Z score": -1}, {"smiles": "COc1ccc(-c2ccc3c(c2)C(=O)N2CC[C@H](NC(=O)N4CCOCC4)[C@H]2C(=O)N3)cc1", "% Inhibition": 33, "Z score": -3.77}, {"smiles": "Cc1nn(C)c2nc(-c3ccncc3)nc(N(C)C[C@H]3CCCCO3)c12", "% Inhibition": -5, "Z score": 0.58}, {"smiles": "COc1ccc(N2CCN(C(=O)C[C@H]3C(=O)NCCN3S(=O)(=O)c3ccc(Cl)cc3)CC2)cc1", "% Inhibition": 10, "Z score": -1.3}, {"smiles": "O=C(NS(=O)(=O)N1CCCc2ccccc21)c1ccoc1", "% Inhibition": -9, "Z score": 0.83}, {"smiles": "COc1ccc(OC)c(CNC(=O)c2ccc(-c3ccnc(N4CCCC4)n3)cc2)c1", "% Inhibition": 5, "Z score": -0.57}, {"smiles": "Cc1ncc(CNC(=O)NCc2ccc(Br)cc2)s1", "% Inhibition": -10, "Z score": 1.62}, {"smiles": "Cc1cc(C(=O)N2CCCc3ccccc32)ccc1N(C)S(C)(=O)=O", "% Inhibition": -4, "Z score": 0.52}, {"smiles": "Cc1ccc(NC(=O)c2ccc(C)nc2C2CCN(S(=O)(=O)c3ccccc3)CC2)cc1", "% Inhibition": -5, "Z score": 0.96}, {"smiles": "COc1ccc(/C=C/CN2CC[C@](C)(O)[C@@H](O)C2)cc1", "% Inhibition": -5, "Z score": 0.98}, {"smiles": "Cc1nc(N2CCn3c(nc(C)c3C)C2)c2cnn(C)c2n1", "% Inhibition": -7, "Z score": 1.11}, {"smiles": "CC[C@H](C)C(=O)N1CCC(Cc2ccc(-c3ccccc3)cc2)CC1", "% Inhibition": -3, "Z score": 0.39}, {"smiles": "NC(=O)[C@H]1C[C@@H](n2nnnc2N2CCCC3(CCCCC3)CC2)C1", "% Inhibition": 0, "Z score": -0.09}, {"smiles": "O=C(CCc1cc2n(n1)CCCNC2)NCc1csc2c1CCCC2", "% Inhibition": -1, "Z score": 0.18}, {"smiles": "CCN(CCO)C(=O)C[C@]1(c2ccccc2)CC(=O)N(Cc2cccnc2)C1=O", "% Inhibition": -5, "Z score": 0.96}]}]}
